The text below walks through data of the supplement of paper PMC4967469.

Broadly, the IC50 is the concentration that gives 50% inhibition.

The IC50 comes from the fitted curve, where viability falls to half of the control; a fit beyond the top or the lowest dose is shown as a bound at that dose. For AUC the same curve is integrated over the 256-fold range of doses and scaled to a fraction; the more sensitive the line, the further below 1. For part of these data: A top dose marked as inferred was calculated from the reported fits. For part of these data: Where an entry number is given, a second screen of the drug exists; the two often differ.

Assay in all cases: Viability of human cancer cell lines after 72 h of drug (GDSC screen)
Compound in assay [1]: C#Cc1cccc(Nc2ncnc3cc(OC)c(OCCCCCCC(=O)NO)cc23)c1 [CUDC-101]
Conditions: top dose 5.12 µM; top dose inferred. As for the experimental part: (§1)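 Human cancer cell lines in 384-well plates, medium with 10% serum, drug for 72 h over a 256-fold dose range (nine 2-fold or five 4-fold steps up to the top dose). Adherent lines were fixed and stained with the nucleic acid dye Syto60, suspension lines read with resazurin; signal relative to control wells, capped at 0 and 100%. One two-parameter sigmoid per drug and line, fitted in a mixed model over all curves with the slope shared within a line.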

Compound in assay [2]: CC(C)(C)c1cc(NC(=O)Nc2ccc(-c3cn4c(n3)sc3cc(OCCN5CCOCC5)ccc34)cc2)no1 [AC220]
To be noted: top dose 1.024 µM; top dose inferred. As for the experimental part: as §1

Compound in assay [3]: COc1cc(F)c(F)c(Nc2ccc(I)cc2F)c1NS(=O)(=O)C1(C[C@H](O)CO)CC1 [RDEA119]
Conditions: top dose 5 µM, top dose inferred. As for the experimental part: as §1

Compound in assay [4]: Fc1cc(-c2ccnc(Nc3ccc(-n4cnc(N5CCOCC5)n4)cc3)n2)cc(N2CCOCC2)c1 [JNK-9L]
To be noted: top dose 5.12 µM; top dose inferred. How it is done: as §1

Compound in assay [5]: NCC(=O)Nc1ccc(-n2nc(C(F)(F)F)cc2-c2ccc3c(ccc4ccccc43)c2)cc1 [OSU-03012]
To be noted: top dose 16 µM; top dose inferred. As for the experimental part:
as §1

Compound in assay [6]: O=c1[nH]cc(F)c(=O)[nH]1 [5-Fluorouracil]
Conditions: top dose 32 µM; top dose inferred. How it is done: as §1

Compound in assay [7]: OC[C@H](Cc1ccccc1)Nc1nc(Oc2ccc3c(c2)CCC3)nc2c1ncn2Cc1ccc(-c2ccccc2)cc1 [QS11]
To be noted: top dose 10.24 µM. How it is done: as §1

On to “NCI-H2170 (lung squamous cell carcinoma, adherent)”, for which the AUC in assay [1] was 0.785; in assay [2], 0.983; in assay [3] (screen: GDSC drug entry 1526), 0.985; in assay [4], 0.545; in assay [5], 0.723; in assay [6] it was 0.903. In addition, the AUC in assay [7] turned out to be 0.904. Also, the IC50 in assay [1] was 2300 nM; in assay [2] it was more than 1020 nM; in assay [3] (screen: GDSC drug entry 1526), more than 5000 nM; in assay [4], 428 nM; in assay [5], 4.46 µM; in assay [6] it was more than 32 µM. The IC50 in assay [7] was more than 10.2 µM.
Regarding “NCI-H2172 (non-small cell lung carcinoma, adherent)”, the AUC came to 0.978 in assay [1]; 0.911 in assay [2]; 0.957 in assay [3] (screen: GDSC drug entry 1014); 0.959 in assay [3] (screen: GDSC drug entry 1526); 0.779 in assay [4]; 0.881 in assay [5]. Besides, the AUC in assay [6] turned out to be 0.959; in assay [7], 0.969. The IC50 in assay [1] was more than 5120 nM; in assay [2], more than 1020 nM; in assay [3] (screen: GDSC drug entry 1014), more than 5000 nM; in assay [3] (screen: GDSC drug entry 1526) it was more than 5000 nM; in assay [4] it was 2890 nM; in assay [5], more than 16 µM. The IC50 in assay [6] was more than 32 µM; in assay [7], more than 10.2 µM.
With “NCI-H2227 (small cell lung carcinoma, semi-adherent)”, the AUC is 0.153 in assay [1]; 0.98 in assay [2]; 0.836 in assay [3] (screen: GDSC drug entry 1014); 0.974 in assay [3] (screen: GDSC drug entry 1526); 0.948 in assay [4]; 0.812 in assay [5]. Also, the AUC in assay [6] was determined as 0.913; in assay [7], 0.986. For the same cell line, the half-inhibitory concentration (IC50) is 22.5 nM in assay [1]; more than 1020 nM in assay [2]; 3930 nM in assay [3] (screen: GDSC drug entry 1014); more than 5000 nM in assay [3] (screen: GDSC drug entry 1526); more than 5120 nM in assay [4]; 9.95 µM in assay [5]. Further, the IC50 was more than 32 µM in assay [6] and more than 10.2 µM in assay [7].
Take “NCI-H2228 (lung adenocarcinoma, adherent)”: the AUC was found to be 0.845 in assay [1]; 0.925 in assay [2]; 0.838 in assay [3] (screen: GDSC drug entry 1526); 0.564 in assay [4]; 0.783 in assay [5]; 0.906 in assay [6]. Moreover, the AUC in assay [7] worked out at 0.914. Also, the IC50 is more than 5120 nM in assay [1]; more than 1020 nM in assay [2]; more than 5000 nM in assay [3] (screen: GDSC drug entry 1526); 10.8 µM in assay [5]; more than 32 µM in assay [6]; more than 10.2 µM in assay [7].
Take “NCI-H2291 (lung adenocarcinoma, adherent)”: the AUC in assay [1] worked out at 0.981; in assay [2], 0.952; in assay [3] (screen: GDSC drug entry 1014), 0.542; in assay [3] (screen: GDSC drug entry 1526), 0.401; in assay [4] it was 0.983; in assay [5], 0.982. The AUC in assay [6] and in assay [7] was 0.984 in each case. Also, the IC50 in assay [1] was more than 5120 nM; in assay [2], more than 1020 nM; in assay [3] (screen: GDSC drug entry 1014), 426 nM; in assay [3] (screen: GDSC drug entry 1526), 150 nM; in assay [4], more than 5120 nM; in assay [5], more than 16 µM. The half-inhibitory concentration (IC50) in assay [6] is more than 32 µM; in assay [7], more than 10.2 µM.
Take “NCI-H2342 (lung adenocarcinoma, adherent)”: the AUC in assay [1] is 0.87; in assay [2], 0.984; in assay [3] (screen: GDSC drug entry 1014) it was 0.963; in assay [3] (screen: GDSC drug entry 1526), 0.973; in assay [4], 0.562; in assay [5] it was 0.536. For the same cell line, the AUC in assay [6] stood at 0.975; in assay [7], 0.761. In addition, the IC50 was more than 5120 nM in assay [1]; more than 1020 nM in assay [2]; more than 5000 nM in assay [3] (screen: GDSC drug entry 1014); more than 5000 nM in assay [3] (screen: GDSC drug entry 1526); 480 nM in assay [4]; 1.26 µM in assay [5]. The IC50 in assay [6] is more than 32 µM; in assay [7] it was 3.98 µM.
For the cell line “NCI-H2347 (lung adenocarcinoma, adherent)”, the AUC in assay [1] came out at 0.632; in assay [2], 0.983; in assay [3] (screen: GDSC drug entry 1014) it was 0.586; in assay [3] (screen: GDSC drug entry 1526), 0.638; in assay [4], 0.596; in assay [5] it was 0.733. Also, the results for the AUC in assay [6] and in assay [7] were 0.945 and 0.902, respectively. For the same cell line, the IC50 in assay [1] is 802 nM; in assay [2] it was more than 1020 nM; in assay [3] (screen: GDSC drug entry 1014), 565 nM; in assay [3] (screen: GDSC drug entry 1526), 822 nM; in assay [4], 623 nM; in assay [5], 5.4 µM. The half-maximal inhibitory concentration (IC50) was more than 32 µM in assay [6] and more than 10.2 µM in assay [7].
Consider “NCI-H2405 (lung adenocarcinoma, adherent)”, for which the AUC was determined as 0.751 in assay [1]; 0.98 in assay [2]; 0.733 in assay [3] (screen: GDSC drug entry 1014); 0.802 in assay [3] (screen: GDSC drug entry 1526); 0.686 in assay [4]; 0.678 in assay [5]. The AUC in assay [6] is 0.97; in assay [7], 0.925. In addition, the IC50 in assay [1] is 1850 nM; in assay [2] it was more than 1020 nM; in assay [3] (screen: GDSC drug entry 1014), 1560 nM; in assay [3] (screen: GDSC drug entry 1526), 2770 nM; in assay [4] it was 1130 nM; in assay [5], 3.33 µM. For the same cell line, the half-maximal inhibitory concentration (IC50) in assay [6] is more than 32 µM; in assay [7], more than 10.2 µM.
